Some of the results follow. At the low end of the ranking the order means little.
Each sequence was assayed against SIX1 homeodomain (reference allele) (UniProt Q15475) (assay: universal protein binding microarray). Settings: Universal all-10-mer PBM (8x60K, AMADID 030236), 300 nM GST-tagged protein, Alexa Fluor 488 anti-GST; buffer, salt, pH and temperature not stated; high values mean tight binding; most listed sequences are background and not binding sites; double strand, one strand shown.

| Sequence | binding signal |
| --- | --- |
| CGTGGACC | -0.258 E-score |
| AACCCGCC | -0.0543 E-score |
| GGGCTTAC | -0.0473 E-score |
| GGTGTCTA | 0.35 E-score |
| ACCGCGGT | 0.0875 E-score |
| ATTCTGCC | -0.0369 E-score |
| CCAATCGC | -0.103 E-score |
| AAGCTACA | -0.116 E-score |
| GCGCATTA | 0.0805 E-score |
| ATACGAGG | 0.232 E-score |
| AAAGCTAC | -0.101 E-score |
| GAAAATAA | -0.151 E-score |
| AAAAACAC | -0.0623 E-score |
| CCAAGTTA | -0.101 E-score |
| AAGTCCCT | -0.156 E-score |
| CTCCTTAA | -0.0897 E-score |
| GAGCCCTA | -0.0819 E-score |
| ACCAAGCA | -0.0892 E-score |
| CAGGAACA | 0.00716 E-score |
| GAAGACAC | 0.21 E-score |
| ATATTGTC | 0.105 E-score |
| AAGCCTTG | -0.201 E-score |
| ATGGAAAT | -0.161 E-score |
| ACCAACCA | 0.0713 E-score |
| CTCCCTAC | 0.0275 E-score |

| Sequence | binding signal |
| --- | --- |
| ACGTTGCT | -0.219 E-score |
| AGCGCTGC | -0.333 E-score |
| CCTATAAA | -0.0902 E-score |
| GAAGCAAA | -0.266 E-score |
| CGACAAAA | -0.187 E-score |
| CATACCCA | 0.208 E-score |
| ACGATTGG | 0.0859 E-score |
| AGGAAGTC | -0.342 E-score |
| AAGCGTCG | -0.256 E-score |
| GATTGAAA | -0.1 E-score |
| AGGGGCAC | -0.0269 E-score |
| AGTGATCA | 0.313 E-score |
| ACCCTCCC | 0.0969 E-score |
| CCTCAGTA | 0.0464 E-score |
| TTAGCTAA | 0.0337 E-score |
| CCTGATCC | 0.387 E-score |
| ATTGATCA | 0.123 E-score |
| CTAGGCAA | -0.176 E-score |
| GATGGGTA | 0.223 E-score |
| CACAAGAA | -0.184 E-score |
| GGCACGCC | -0.172 E-score |
| AGTGGTAT | 0.35 E-score |
| AATGAATC | 0.0336 E-score |
| TCACTAAA | 0.0184 E-score |
| TACAAGTA | 0.162 E-score |

| Sequence | binding signal |
| --- | --- |
| ACCGCTAC | -0.0951 E-score |
| CCGCGCCA | -0.174 E-score |
| GACACGGA | 0.196 E-score |
| AATATGAA | 0.0344 E-score |
| CTGATGTA | -0.0219 E-score |
| CCGCTTAA | -0.0125 E-score |
| TAAAACCA | 0.0113 E-score |
| AGAGTACG | -0.118 E-score |
| GCATAAAC | -0.0342 E-score |
| AGTAAATA | 0.0217 E-score |
| CGTGCTAA | -0.238 E-score |
| CCTATTAA | 0.00619 E-score |
| AGCAAGAG | -0.123 E-score |
| CGTAGATC | 0.0922 E-score |
| ACGAGTGA | -0.00425 E-score |
| GGTAGACA | 0.133 E-score |
| AGATAGCG | 0.0754 E-score |
| CACCACTA | 0.165 E-score |
| AAAAGTGG | -0.0847 E-score |
| AGTCCCTC | -0.231 E-score |
| AACCCAGC | -0.0253 E-score |
| CGGGGCAA | 0.104 E-score |
| AAACGATA | 0.328 E-score |
| CATTCAAG | -0.0736 E-score |
| GTGAGTGA | 0.00877 E-score |

| Sequence | binding signal |
| --- | --- |
| AACAAACT | -0.237 E-score |
| GCGGGCAA | -0.128 E-score |
| GGCCGACC | -0.0654 E-score |
| CCACCACG | -0.0152 E-score |
| AGCTTACG | -0.00665 E-score |
| CGATCAGA | 0.192 E-score |
| GCTTTAGA | -0.0964 E-score |
| GGGTACAA | 0.00918 E-score |
| CATAAGAC | -0.0925 E-score |
| GATCGATC | 0.362 E-score |
| CAAGGGTC | -0.218 E-score |
| AATTCAGG | 0.0244 E-score |
| CTAGTTAC | -0.166 E-score |
| AAAGCTTG | -0.226 E-score |
| TTAAGAAA | -0.237 E-score |
| ATCAGCTC | 0.283 E-score |
| AGCTTATG | -0.097 E-score |
| AGTGAGGC | -0.0151 E-score |
| GAATATAC | 0.0608 E-score |
| CCCGACAG | 0.013 E-score |
| TGGGAAAA | -0.181 E-score |
| AGATCCTG | 0.252 E-score |
| AAGACAGA | -0.099 E-score |
| CATATACG | 0.24 E-score |
| CCGACTCG | 0.0999 E-score |

| Sequence | binding signal |
| --- | --- |
| ACTCCTAT | 0.0782 E-score |
| CAATACCC | 0.387 E-score |
| CTCAACGA | 0.0195 E-score |
| CGCACACG | -0.0156 E-score |
| CATTCTCA | 0.0592 E-score |
| GAGGAACA | -0.0362 E-score |
| CGAGGACC | -0.146 E-score |
| CTATCTTA | -0.0436 E-score |
| ACGCTAAA | -0.0647 E-score |
| CGTCAAGA | -0.164 E-score |
| TCCTAGCA | -0.151 E-score |
| CTCATCAG | 0.105 E-score |
| AACGCGCG | -0.113 E-score |
| CGAGACCG | 0.136 E-score |
| GAACTAAA | -0.0021 E-score |
| GATAGCCC | 0.303 E-score |
| ACCGACGC | -0.153 E-score |
| CAATCGTG | -0.107 E-score |
| CGCAAGCA | -0.0606 E-score |
| CCCTAAAA | 0.0382 E-score |
| AAACTGCC | -0.0526 E-score |
| CGGGTAAA | 0.0352 E-score |
| GAAGCTTA | -0.0523 E-score |
| ATAGACGG | 0.0881 E-score |
| CAGAAACG | -0.137 E-score |

| Sequence | binding signal |
| --- | --- |
| CGCGACGA | -0.0396 E-score |
| GATACTGA | 0.423 E-score |
| ACCGGAGC | -0.0324 E-score |
| CCACCGCC | -0.162 E-score |
| CTAACATA | 0.108 E-score |
| AACCGCGC | -0.205 E-score |
| TCTCAGCA | 0.0634 E-score |
| GGAGTTCA | -0.184 E-score |
| GGAATGAA | -0.115 E-score |
| CTTTGCGC | -0.284 E-score |
| AGAACACA | -0.146 E-score |
| ATCCCCAG | 0.239 E-score |
| AATTCGCT | -0.137 E-score |
| TCCGCTCA | -0.0747 E-score |
| GCGTTTTA | -0.0508 E-score |
| GACAACGC | -0.302 E-score |
| ACCCAGTA | 0.198 E-score |
| GCGACTGA | -0.00831 E-score |
| CGGGATAG | 0.268 E-score |
| ACAGCACT | -0.273 E-score |
| CCTGCATC | 0.125 E-score |
| CAGCGTGA | -0.00634 E-score |
| CATAACTA | 0.00415 E-score |
| GCCCATCC | 0.14 E-score |
| CCGGCCCG | -0.00181 E-score |

| Sequence | binding signal |
| --- | --- |
| TAAGCACA | -0.0726 E-score |
| CCTCTGAA | -0.0853 E-score |
| ACTTTATA | 0.0208 E-score |
| AAAAGTTC | -0.298 E-score |
| GCGGACGA | 0.073 E-score |
| AACTAATT | -0.121 E-score |
| GATATGTA | 0.383 E-score |
| CATGACAC | 0.35 E-score |
| CTATGTTC | -0.0618 E-score |
| GTACCATA | 0.0944 E-score |
| ACTCTCCC | -0.0551 E-score |
| GACGGAAA | -0.18 E-score |
| CTCGGCTC | -0.18 E-score |
| TCTTTCCA | -0.203 E-score |
| CTCCACCA | -0.202 E-score |
| AGCCGCAA | -0.101 E-score |
| GAACACGC | -0.0654 E-score |
| AATCACCT | -0.0396 E-score |
| AGTCGTTG | -0.187 E-score |
| CAAGCGCA | 0.0156 E-score |
| GGGAGTAA | -0.0228 E-score |
| TCCATGGA | 0.083 E-score |
